Drawing on a collection of fitness landscapes (doi:10.1126/science.1257360), this text covers enrichment ratio for 195 variants.

The other results are listed elsewhere or left out. Where only a bound is given, the exact number is not on record here.

B1: PhoQ; a variant is named by its letters at X, in order, P23837 (parent)
chain: MKKLLRLFFPLSLRVRFLLATAAVVLVLSLAYGMVALIGYSVSFDKTTFRLLRGESNLFYTLAKWENNKLHVELPENIDKQSPTMTLIYDENGQLLWAQRDVPWLMKMIQPDWLKSNGFHEIEADVNDTSLLLSGDHSIQQQLQEVREDDDDAEMTHSVAVNVYPATSRMPKLTIVVVDTIPVELKSSYMVWSWFIYVLSANLLLVIPLLWVAAWWSLRPIEALAKEVRELEEHNRELLNPATTRELTSLVRNLNRLLKSERERYDKYRTTLTDLTHSLKTPLXXLQXXLRSLRSEKMSVSDAEPVMLEQISRISQQIGYYLHRASMRGGTLLSRELHPVAPLLDNLTSALNKVYQRKGVNISLDISPEISFVGEQNDFVEVMGNVLDNACKYCLEFVEISARQTDEHLYIVVEDDGPGIPLSKREVIFDRGQRVDTLRPGQGVGLAVAREITEQYEGKIVAGESMLGGARMEVIFGRQHSAPKDE

Variants of B1 are the subject of this experiment. The experiment can be described thus: enrichment ratio after two sorts for PhoP signalling (ratio (wild type AVST 3.29)); higher = more functional. The note with it: with PhoP (E. coli).
In the case of SPSA, the enrichment ratio was no more than 0.25.
For the variant DFPC, the enrichment ratio was no more than 0.25.
For WGYI, the enrichment ratio was no more than 0.25.
FVLN: the enrichment ratio worked out at 2.59.
Turning to DRWH, the enrichment ratio is no more than 0.25.
For the variant YLDW, the enrichment ratio is no more than 0.25.
The figure for GRLC is no more than 0.25.
With WELW, the enrichment ratio was no more than 0.25.
Consider EPSS, for which the enrichment ratio was no more than 0.25.
With GFFG, the enrichment ratio is no more than 0.25.
As to NAWP, the enrichment ratio is no more than 0.25.
As for AYKS, the enrichment ratio is no more than 0.25.
QLIW: the enrichment ratio was no more than 0.25.
Under HPLV stands no more than 0.25; under IVFW, no more than 0.25.
For the variant WAFM, the enrichment ratio is no more than 0.25.
For the variant ELCT, the enrichment ratio is no more than 0.25.
DDWD: the enrichment ratio is no more than 0.25.
Under HFAF stands no more than 0.25; under LENG, no more than 0.25.
The figure for LLQS is no more than 0.25; for WSFD it is no more than 0.25; for KMMW it is no more than 0.25.
The figure for WHWV is no more than 0.25; for SFAG it is 0.768; for ILPY it is no more than 0.25.
As to AEHN, the enrichment ratio is no more than 0.25.
In the case of IMKH, the enrichment ratio is no more than 0.25.
Turning to RTMD, the enrichment ratio is no more than 0.25.
For QIYS, the enrichment ratio was determined as 3.96.
Under GIGW stands 16; under SFFK, no more than 0.25; under FDAD, no more than 0.25.
For the variant NLHK, the enrichment ratio is no more than 0.25.
In the case of YAFQ, the enrichment ratio is no more than 0.25.
FNQA: the enrichment ratio is no more than 0.25.
The figure for MIKL is no more than 0.25; for PPIP it is no more than 0.25; for DKHA it is no more than 0.25.
For the variant VWTP, the enrichment ratio is no more than 0.25.
ASMS: the enrichment ratio was 5.31.
Turning to PRDR, the enrichment ratio was no more than 0.25.
With QSLD, the enrichment ratio was no more than 0.25.
The figure for TPPC is no more than 0.25; for EEPH it is no more than 0.25.
In the case of NFWI, the enrichment ratio is no more than 0.25.
Regarding YGCL, the enrichment ratio was 2.74.
On to KVLA, for which the enrichment ratio is no more than 0.25.
For the variant SPAE, the enrichment ratio is no more than 0.25.
Regarding DDAD, the enrichment ratio is no more than 0.25.
Regarding NIED, the enrichment ratio was no more than 0.25.
Take DTCS: the enrichment ratio is no more than 0.25.
For the variant VCFT, the enrichment ratio is no more than 0.25.
GFKY: the enrichment ratio was no more than 0.25.
With DWMR, the enrichment ratio was no more than 0.25.
With LTQY, the enrichment ratio was no more than 0.25.
For the variant MQML, the enrichment ratio was no more than 0.25.
Under KTGQ stands no more than 0.25.
With DAGT, the enrichment ratio is no more than 0.25.
Under WRDV stands no more than 0.25.
For the variant AILP, the enrichment ratio was no more than 0.25.
Take PICN: the enrichment ratio is no more than 0.25.
In the case of MEKI, the enrichment ratio was no more than 0.25.
For the variant WLYI, the enrichment ratio is no more than 0.25.
Turning to DHRW, the enrichment ratio is no more than 0.25.
Turning to RKIF, the enrichment ratio was no more than 0.25.
Regarding DISS, the enrichment ratio was no more than 0.25.
For the variant WTKA, the enrichment ratio is no more than 0.25.
The figure for TYDG is no more than 0.25; for GTIN it is no more than 0.25.
The figure for NEPT is no more than 0.25; for TDSA it is 5.99.
The figure for RYMV is no more than 0.25.
On to QLMS, for which the enrichment ratio is no more than 0.25.
Turning to KMDN, the enrichment ratio was no more than 0.25.
Turning to KIKD, the enrichment ratio was no more than 0.25.
Regarding HGHL, the enrichment ratio was no more than 0.25.
The figure for SRAT is no more than 0.25; for GACH it is no more than 0.25; for TRDD it is no more than 0.25.
The figure for VFLV is no more than 0.25; for CWMT it is no more than 0.25.
Turning to TLTI, the enrichment ratio is 10.7.
On to RFMR, for which the enrichment ratio was no more than 0.25.
With AMSW, the enrichment ratio was determined as 0.458.
Under FIVT stands no more than 0.25; under FNCL, no more than 0.25.
Turning to KMNH, the enrichment ratio was no more than 0.25.
In the case of RSFA, the enrichment ratio was no more than 0.25.
MFSE: the enrichment ratio is no more than 0.25.
The figure for ANTA is 19.3; for MLCS it is 0.26; for TWTS it is no more than 0.25.
Turning to RGIY, the enrichment ratio was no more than 0.25.
Consider LVSL, for which the enrichment ratio was no more than 0.25.
As to PSQW, the enrichment ratio was no more than 0.25.
For HKQG, the enrichment ratio is no more than 0.25.
For the variant MNVG, the enrichment ratio was no more than 0.25.
Turning to QNHG, the enrichment ratio was no more than 0.25.
As to TYAN, the enrichment ratio is no more than 0.25.
Under EQNK stands no more than 0.25; under QAEF, no more than 0.25.
As for RFYA, the enrichment ratio was no more than 0.25.
For the variant ATMS, the enrichment ratio was 6.27.
Regarding PKLK, the enrichment ratio is no more than 0.25.
As to PFES, the enrichment ratio was no more than 0.25.
Take GRCF: the enrichment ratio is no more than 0.25.
With PPDK, the enrichment ratio was no more than 0.25.
Under YKRH stands no more than 0.25; under MTHL, 7.87.
As to YDQA, the enrichment ratio is no more than 0.25.
Consider LFQR, for which the enrichment ratio is no more than 0.25.
Under LYMH stands no more than 0.25; under QIFY, no more than 0.25.
Turning to KHKD, the enrichment ratio was no more than 0.25.
In the case of PVPC, the enrichment ratio was no more than 0.25.
WSMR: the enrichment ratio was no more than 0.25.
With AFQV, the enrichment ratio is no more than 0.25.
As to GLRC, the enrichment ratio was no more than 0.25.
As to EGLR, the enrichment ratio came out at 0.729.
On to WYPC, for which the enrichment ratio was no more than 0.25.
For GETS, the enrichment ratio was determined as 1.4.
Under RWNF stands no more than 0.25; under LYIW, no more than 0.25; under VLRS, no more than 0.25.
In the case of HCSS, the enrichment ratio is no more than 0.25.
In the case of MFMA, the enrichment ratio is no more than 0.25.
As for HERL, the enrichment ratio is no more than 0.25.
In the case of FWNH, the enrichment ratio was no more than 0.25.
For YCWY, the enrichment ratio was no more than 0.25.
For the variant FNIY, the enrichment ratio was no more than 0.25.
In the case of YFDK, the enrichment ratio is no more than 0.25.
With FMLP, the enrichment ratio was no more than 0.25.
The figure for IFWK is no more than 0.25; for GNES it is no more than 0.25.
The figure for WFLC is no more than 0.25; for AWNE it is no more than 0.25.
As to VRNC, the enrichment ratio was no more than 0.25.
The figure for RKLC is no more than 0.25; for WEAC it is no more than 0.25; for QFMH it is no more than 0.25.
In the case of SPTH, the enrichment ratio was no more than 0.25.
Consider ERFN, for which the enrichment ratio is no more than 0.25.
For RAGH, the enrichment ratio is no more than 0.25.
For the variant MVVD, the enrichment ratio is no more than 0.25.
Consider LTMG, for which the enrichment ratio is no more than 0.25.
Consider FEES, for which the enrichment ratio was no more than 0.25.
As to YQDP, the enrichment ratio was no more than 0.25.
For the variant ESYE, the enrichment ratio is no more than 0.25.
In the case of TAHK, the enrichment ratio was no more than 0.25.
Turning to WDCM, the enrichment ratio is no more than 0.25.
As for HYEP, the enrichment ratio is no more than 0.25.
Consider QLIT, for which the enrichment ratio was no more than 0.25.
With ARWY, the enrichment ratio was no more than 0.25.
For SGTH, the enrichment ratio amounted to 8.61.
As for WQTY, the enrichment ratio is no more than 0.25.
As for LNLT, the enrichment ratio worked out at 1.78.
For DVSS, the enrichment ratio was no more than 0.25.
Under WIFI stands no more than 0.25.
With IANK, the enrichment ratio was no more than 0.25.
With HVSK, the enrichment ratio is no more than 0.25.
Take LPTF: the enrichment ratio was no more than 0.25.
Turning to DMFD, the enrichment ratio is no more than 0.25.
LRMV: the enrichment ratio was no more than 0.25.
In the case of YWPP, the enrichment ratio is no more than 0.25.
As to FHDE, the enrichment ratio was no more than 0.25.
In the case of WPPF, the enrichment ratio is no more than 0.25.
Consider FDSI, for which the enrichment ratio is no more than 0.25.
Under SAFK stands no more than 0.25; under IEIM, no more than 0.25; under TLVA, no more than 0.25.
Consider AFCH, for which the enrichment ratio is no more than 0.25.
Under LGTG stands no more than 0.25; under NQDA, no more than 0.25.
As to VDDN, the enrichment ratio is no more than 0.25.
As to ARKI, the enrichment ratio was no more than 0.25.
Regarding PFRV, the enrichment ratio is no more than 0.25.
Under QPPC stands no more than 0.25; under NACK, no more than 0.25; under LGII, no more than 0.25.
Under VERP stands no more than 0.25; under QSHH, no more than 0.25; under AHAM, no more than 0.25.
NARR: the enrichment ratio is no more than 0.25.
Turning to RRKW, the enrichment ratio was no more than 0.25.
Under PSYA stands no more than 0.25.
SHQP: the enrichment ratio is no more than 0.25.
For NRDV, the enrichment ratio was no more than 0.25.
Regarding IKLR, the enrichment ratio is no more than 0.25.
Take ESFN: the enrichment ratio was no more than 0.25.
Take YALK: the enrichment ratio was no more than 0.25.
As for IEMS, the enrichment ratio is no more than 0.25.
For the variant WFHC, the enrichment ratio was no more than 0.25.
AERW: the enrichment ratio was no more than 0.25.
In the case of FMNT, the enrichment ratio was no more than 0.25.
